Results from PubChem BioAssay (NCI).
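These data come from cells grown in 96-well plates and exposed to compound for 48 hours at five concentrations. The concentration for 50% growth inhibition is given as GI50. At the TGI there is no net growth.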

Test system: NCI-H322M lung
Assay: inhibition of tumour cell growth, NCI panel, 48 h

CCCCSc1nc(NCCc2c[nH]c3ccccc23)c(C#N)c(-c2ccccc2)n1
GI50: 16.6 µM
TGI: 38.3 µM

O=Cc1cncc(-c2ccc3ncnc(N4CCc5cc(F)c(Cl)cc54)c3c2)c1
GI50: 2.11 µM
TGI: 9.79 µM

CCCCN1C(=O)/C(=C\C(=O)c2cc3ccccc3oc2=O)c2ccccc21
GI50: > 100 µM
TGI: > 100 µM

Fc1ccccc1CNc1nc(SCCN2CCOCC2)nc2c1cnn2CC(Cl)c1ccc(Br)cc1 (stereo not given)
GI50: > 100 µM
TGI: > 100 µM

CN(C)CCn1c2ccccc2c2nc3ccc([N+](=O)[O-])cc3nc21
GI50: 2.25 µM
TGI: 11.9 µM
